Test results from the supplement of paper PMC12889115.
The other results are listed elsewhere or left out. Cut-off read from the data, not from the text of the source: active = 25% or less and inactive = the rest. Single values are uncertain, as repeats are few or missing.

test system: Salmonella enterica serovar Typhimurium SL1344; test: intramacrophage bacterial GFP load (SAFIRE), percent of DMSO control (% of DMSO); higher = more intracellular bacteria (less inhibition); settings: 25 µM; system: infected RAW 264.7 macrophages
Procedure: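 Secondary screen of the 553 primary hits at 25 µM. (i) S. Typhimurium SL1344 grown in Mueller-Hinton broth with 0.5 µg/mL polymyxin B, OD600 read after 18 h. (ii) SAFIRE assay: RAW 264.7 macrophages infected with S. Typhimurium sifB::gfp (MOI 30); compound added 2 h post-infection; cells fixed at 18 h; GFP-positive pixel fraction per macrophage imaged by confocal microscopy and expressed as % of DMSO control.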
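Note: compounds tested were the hits of an earlier 50 µM broth growth screen of a drug-like diversity library run with polymyxin B.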

Row | Compound | intramacrophage bacterial GFP load
1 | O=C(NCCC1=CCCCC1)C1CC12CCN(C(=O)CCc1ccc3c(c1)OCO3)CC2 (stereo not given) | active: 19.6
2 | O=C(c1coc(COc2ccccc2F)n1)N1CCc2c(Cl)cccc2C1 | inactive: 217
3 | Cc1ccc2c(c1)CN(CC(=O)N1CCC(c3ccncc3)CC1)CC(c1ccsc1)O2 (stereo not given) | inactive: 47
4 | COc1ccc(C(=O)N2CCCC(C(=O)c3ccc4ccccc4c3)C2)o1 (stereo not given) | inactive: 101
5 | Cc1ccc(-c2nnc(CCC(=O)NCCc3cccc4ccccc34)o2)s1 | inactive: 64.5
6 | O=C(Nc1cccc(-n2cccn2)c1)C1CCCN1C1Cc2ccccc2C1 (stereo not given) | inactive: 69.3
7 | CC1CN(Cc2nc3ccccc3n2C)Cc2cc(Cl)ccc2O1 (stereo not given) | inactive: 73.3
8 | COc1cc(CN2CCOc3ccc(CN4CCc5sccc5C4)cc3C2)cc2c1OCO2 | active: 23.5
9 | CSCCC(=O)N1CCc2[nH]nc(-c3ccc(Cl)cc3)c2C1 | inactive: 83.1
10 | Cc1nc(N2CCCCCCC2)ncc1C(C)NCc1ccccc1 (stereo not given) | active: 1.98
11 | CCOC(=O)C1(CCCc2ccccc2)CCN(C(=O)c2ccc(COC)o2)CC1 | active: 17.1
12 | O=C(c1cccc(N2CCCC2=O)c1)N(Cc1ccncc1)Cc1cccc(OCCc2ccc(F)cc2)c1 | inactive: 133
13 | CN(C(=O)c1ccccn1)C(Cc1ccccc1)C1CCN(C(=O)/C=C/c2ccccc2)CC1 (stereo not given) | inactive: 44.6
14 | CN1C(=O)CC(CC(=O)N2CCCCC2c2nccs2)(c2ccc(-c3ccccc3)cc2)C1=O (stereo not given) | inactive: 55.6
15 | COC1CCN(C(=O)CC(c2ccccc2)c2ccccc2Cl)CC1 (stereo not given) | inactive: 83.4
16 | CC(C)Oc1cccc(C(=O)C2CCCN(C(=O)/C=C/c3cccs3)C2)c1 (stereo not given) | inactive: 88.6
17 | COc1ccc2cc(CN(Cc3ccco3)C(=O)CCn3ccc(C)n3)c(N3CCCCCC3)nc2c1 | inactive: 93.4
18 | O=C(Nc1ccc(-c2cscn2)cc1)C1CCCN1Cc1ccccc1 (stereo not given) | inactive: 57
19 | CC(C)CS(=O)(=O)c1ncc(CN(C)C2CCCCC2)n1Cc1ccccc1 | active: 14.6
20 | CCC1CN(Cc2sccc2C)Cc2cc(OC)ccc2O1 (stereo not given) | inactive: 53.2

Row | Compound | intramacrophage bacterial GFP load
21 | CCOC(=O)C1(CCc2ccccc2)CCCN(C(=O)c2ccc(COC)s2)C1 (stereo not given) | inactive: 33.7
22 | CCOC(=O)C1(Cc2ccc(Cl)cc2)CCN(C(=O)C(C)n2nc(C)cc2C)CC1 (stereo not given) | active: 3.22
23 | COc1ccc(C)cc1S(=O)(=O)N1CCC(CO)(Cc2cccc(C(F)(F)F)c2)CC1 | inactive: 105
24 | Cc1cc(-c2nn(-c3ccccc3F)cc2CN(C)Cc2ccon2)c(C)s1 | inactive: 37.1
25 | C=CCCC(=O)N1CCCC(C(=O)Nc2cccc(-c3ccc(F)cc3)c2)C1 (stereo not given) | inactive: 122
26 | COc1ccc(-c2cnnc(NCCc3ccccc3F)n2)c(OC)c1 | inactive: 82.2
27 | CSc1ncccc1C(=O)N1CCC(C(Cc2ccccc2)N(C)C(=O)c2ccsc2)CC1 (stereo not given) | inactive: 52.5
28 | Cn1c(CNc2nncc(-c3cccc(Cl)c3)n2)nc2ccccc21 | inactive: 57.2
29 | COc1cc(C)ccc1OCc1nc(C(=O)N2CC[C@@H]3CCCC[C@H]3C2)co1 | inactive: 46.2
30 | CC1CN(Cc2ccc3ncccc3c2)Cc2cc(Cl)ccc2O1 (stereo not given) | inactive: 46.1
31 | COc1ccc(CC2(CCC(=O)N3CCN(c4cc(Cl)ccc4C)CC3)CCC(=O)N2)c(F)c1 (stereo not given) | inactive: 92.2
32 | O=C(c1ccc2oc(-c3cccc(F)c3)nc2c1)N1C[C@@H]2CCC[C@H]1C2 | inactive: 108
33 | Cc1ccn(CCC(=O)N(Cc2ccncc2)Cc2cccc(OCCc3ccc(F)cc3)c2)n1 | inactive: 63.5
34 | CCOC(=O)C1(CCc2ccccc2)CCCN(C(=O)c2ccc(OC)o2)C1 (stereo not given) | active: 13.8
35 | CC1CCN(C(=O)CC2(c3ccc(-c4ccccc4)cc3)CC(=O)N(C)C2=O)CC1 (stereo not given) | inactive: 124
36 | Cc1ccc(CN(C)Cc2cnc(S(=O)(=O)C(C)C)n2CCc2ccccc2)cc1 | inactive: 95.6
37 | O=C(CCC(F)(F)F)N1CCc2onc(-c3cccc4ccccc34)c2C1 | inactive: 196
38 | Cc1ccccc1CNC(=O)c1coc(COc2cccc(F)c2)n1 | inactive: 136
39 | COc1cc(Cl)c(CN2CCOc3ccc(CN4C[C@@H](C)O[C@@H](C)C4)cc3C2)cc1OC | active: 1.94
40 | CSCCCNC(=O)c1oc2ccc(C)cc2c1C | inactive: 73.1
